Patent publication US20090291975A1, “DUAL OPIOID PAIN THERAPY” (priority 2008, published 2009)

Key:
[1] = system: patients with chronic moderate to severe, non-cancer pain; assay: Study 2: Phase II randomized double-blind crossover, pain relief (VAS), Q8002 vs morphine
[2] = system: patients with chronic moderate to severe, non-cancer pain; assay: Study 1: Phase II randomized double-blind crossover, pain relief (VAS), Q8001 vs morphine; type: in vivo, human
[3] = mean reduction in VAS from baseline

CN1CC[C@]23c4c5ccc(O)c4O[C@H]2[C@@H](O)C=C[C@H]3[C@H]1C5 [Morphine, morphine]
PAIN SCORE (VAS) At DAYS 4-5 ([1]; days 4-5): 3.8 | % PAIN REDUCTION [1, 3]: 21% | PAIN SCORE (VAS) At DAYS 4-5 ([2]; days 4-5): 4 | % PAIN REDUCTION [2, 3]: 11%
